These results are taken from the RNAGym collection of RNA variant scans (doi:10.7554/elife.90254).

The labels stand for the following.
B1: LINE1-mini (parent)
chain: GGCAGAGCUCAACACAGCGUGGCAAAGUGGCUGUGGCUAGACUGCC

The source gives no read counts; variants with many changes may rest on few reads.

Variants of B1 are the subject of this data set. The data set is described as follows: self-cleavage, relative activity (ratio to wild type); higher = more cleavage; in vitro, sequencing; the parent is a self-cleaving ribozyme.
As for C15U A39U A41C U43A, the self-cleavage was 0.02.
As for C15G G29C U38C, the figure is 0.06; as for C15G C18G U28G, 0.01.
C15G G29U C31G G44U: the self-cleavage was 0.01.
The result for C15G G36U C42A reads 0.02; that for C15G C18A G19A, 0.01; that for C15G G17U A26C G29C C42U, 0.03.
Regarding C15G C18U U43A, the self-cleavage was 0.11.
The result for C15U A25G G30A reads 0.06; that for C15U C18U G33A G44U, 0.04.
The result for C15U A16U U32C U34C reads 0.07.
As for C15U A25G C45A, the figure is 0.07.
On to C15U C18U A26U U32A G36A, for which the self-cleavage stood at 0.03.
As for C15G G27C U32A U43C, the figure is 0.08; as for C15G A26G G27C A39C, 0.02; as for C15G U20C U28A G30U, 0.01.
As for C15G G21U U34G, the figure is 0.02; as for C15G A16U G29A C31U, 0.02; as for C15G A24C G40C, 0.02.
In the case of C15G G19C G21U, the self-cleavage stood at 0.03.
Regarding C15G G19C G29C A39U G44A, the self-cleavage turned out to be 0.06.
The result for C15G G21U G27C reads 0.03; that for C15G G27U G30C C31G, 0.02.
As to C15G C18G U38G A39G, the self-cleavage amounted to 0.02.
Take C15U C18U G36C: the self-cleavage was determined as 0.02.
C15U A16U G17U G35U C46U: the self-cleavage came to 0.05.
As for C15G G21A G40A, the figure is 0.01.
As for C15G U34A G40A, the figure is 0.01; as for C15U A16G U20C G22A, 0.5.
As for C15G C31A C37G, the figure is 0.02; as for C15G G21U G27A U32G G40C, 0.01; as for C15G C23U U38A A39U A41U, 0.03.
Turning to C15G C23A G30U, the self-cleavage came out at 0.05.
Turning to C15U A25U C37A, the self-cleavage was determined as 1.24.
Regarding C15G C23A A41G C45A, the self-cleavage was determined as 0.03.
The result for C15G G22C U32C reads 0.02.
As for C15U C23A G35A C37G, the figure is 0; as for C15U A39C G44C C45G, 0.02.
The result for C15G G17C G36U reads 0.09; that for C15G A16U G30C, 0.1.
Regarding C15G G19U A39G, the self-cleavage was 0.01.
As for C15U C23A G30C, the figure is 0.07; as for C15G G19A G29C, 0.09.
Take C15G U20C C31G: the self-cleavage turned out to be 0.02.
In the case of C15G G36A C37A C42G, the self-cleavage stood at 0.04.
In the case of C15U C18U C42U, the self-cleavage is 0.02.
The result for C15U A25U A26C C37U G40U reads 0.02; that for C15U C18U U38C, 0.03.
As for C15U C18U U38G, the figure is 0.03.
As to C15G C31U C42U, the self-cleavage is 0.
The result for C15G U20A G21A U28C reads 0.
The result for C15G G33U G35A A39G reads 0.02; that for C15G G17C G40A C46U, 0.01; that for C15U A24C U34G, 0.02.
Consider C15G U32C G33U, for which the self-cleavage was determined as 0.04.
In the case of C15G G19C A24C C42G, the self-cleavage turned out to be 0.02.
As for C15G A24C C37A, the figure is 0; as for C15G C18U G22U G35A A39U, 0.04.
As for C15G U20G G29A, the figure is 0.01; as for C15G G17U U43A G44A, 0.03; as for C15U C18A G21C A39G, 0.07.
As for C15G G29U A41G, the figure is 0.01; as for C15G G22U C37A U43A, 0.02; as for C15G C18U G19U, 0.01.
C15U A26G C31G G33C A41C: the self-cleavage amounted to 0.02.
As for C15G A26U G29U, the figure is 0.07; as for C15G G21C A24G, 0.09.
As to C15U C23A G27A C31A U38G C42A U43C, the self-cleavage amounted to 0.04.
As for C15G U43C C45G, the figure is 0.01; as for C15G U28C G35U, 0.02.
For the variant C15U C18U G21C, the self-cleavage stood at 1.85.
As for C15G G30C G35U, the figure is 0.04; as for C15U A24C C31U, 0.05.
Consider C15G U20C U28C G30A, for which the self-cleavage is 0.01.
In the case of C15U A16U C18U, the self-cleavage was found to be 0.04.
As for C15U A25U A41C, the figure is 0.27.
As for C15G A16G C18U, the figure is 0.06.
With C15U C18G G36C, the self-cleavage worked out at 0.01.
Consider C15U A16G U28A C31A U38C, for which the self-cleavage came out at 0.04.
In the case of C15G G21C G36U, the self-cleavage is 0.02.
The result for C15G A26C G30A U32A G36A A41U reads 0.02.
As for C15G C23G A25C G33U, the figure is 0.04; as for C15U C18U G19U, 0.16; as for C15G G17C U20G U34A, 0.18.
As for C15U A25U U32A A39G A41U C46U, the figure is 0.07; as for C15G G30U C37G, 0.01.
C15G U32A A41G: the self-cleavage worked out at 0.01.
C15G A24U G29A: the self-cleavage amounted to 0.07.
Turning to C15G G17U G27C, the self-cleavage came out at 0.17.
As for C15U A16U U20A G30C U32A, the self-cleavage was 0.1.
Turning to C15U A39C C42A, the self-cleavage was 0.04.
As to C15G G22U G33C, the self-cleavage was found to be 1.12.
The result for C15G C45G C46U reads 0.01; that for C15G G33U G40U, 0.02; that for C15G G30A C31U, 0.02.
Take C15U A24U G29U A41U C46A: the self-cleavage is 0.1.
As for C15G G21C A25C, the figure is 0.02.
The result for C15U A16U C42A reads 0.22; that for C15G G17U U28C G29C C31A, 0.02.
On to C15U C18U U32G C42A, for which the self-cleavage was 0.02.
As to C15G G21A U28A C46A, the self-cleavage amounted to 0.04.
With C15U C18G G30U, the self-cleavage was determined as 0.08.
On to C15U C18U G19U U20A C23G C31U U32A G40C, for which the self-cleavage worked out at 0.06.
The result for C15G G27A A41G C42U G44U reads 0.02.
As to C15U A16G U32A, the self-cleavage stood at 0.
As for C15U A25C A26G, the figure is 1.51; as for C15U A24U G29C, 0.55.
For C15G G29U A39G A41G, the self-cleavage turned out to be 0.02.
As for C15G G19U U32C C45A, the figure is 0.01.
As for C15U C18A G29A U43C, the figure is 0.03.
The result for C15G G36A G40A reads 0.04; that for C15U C18A A41U, 0.02; that for C15G G27C C46U, 0.04.
C15G G27C C46A: the self-cleavage was determined as 0.04.
With C15U A16C G29U, the self-cleavage is 0.12.
As for C15U A26C U32C G36U C42G, the figure is 0.07; as for C15G C18A G19C U20C C46G, 0.08.
C15G G21U C23U A24G C45A: the self-cleavage stood at 0.01.
As for C15G A16G G36U G40U, the self-cleavage was 0.04.
The result for C15G C23A G44C reads 0.02; that for C15G C23A G44A, 0.05; that for C15G G40C A41U G44A, 0.01.
Consider C15G G17U U38G, for which the self-cleavage worked out at 0.03.
The result for C15G C37U U43C G44A reads 0.02; that for C15U A24G G29U C37A, 0.06.
The result for C15U A16C A26C reads 0.06.
The result for C15U A26U A41U reads 0.73; that for C15U A24G G36A, 0.14; that for C15G G17U C23U G29A G36U, 0.07.
As to C15U A16U G27U, the self-cleavage is 0.14.
As for C15G U34C G35U, the figure is 0.04; as for C15G G17A G22A, 0.05.
Turning to C15U C18U G27U G44A, the self-cleavage turned out to be 0.04.
As for C15G A16U G27A G29A C37G, the self-cleavage was 0.02.
Turning to C15G A25U G33C, the self-cleavage is 0.3.
The result for C15U A24U A41C reads 0.55; that for C15G C37U G44U, 0.02.
For C15G G21A G27A, the self-cleavage came to 0.03.
In the case of C15G G19C G29A C45G, the self-cleavage was found to be 0.01.
As to C15U C18G C46U, the self-cleavage came out at 0.03.
On to C15U C18U A24C C46U, for which the self-cleavage was found to be 0.01.
C15G G35C A39U C42A: the self-cleavage stood at 0.04.
The result for C15G A26G C31A G35A C37G reads 0.01; that for C15U C18G G29C G33U, 0.14.
Consider C15U C18U C23U C37A, for which the self-cleavage stood at 0.75.
C15G G21A C37G: the self-cleavage is 0.01.
With C15U A16C C18U C37U, the self-cleavage turned out to be 0.12.
As for C15U C18A U34C, the figure is 0.13.
As for C15G U20C A26U, the figure is 0.02; as for C15G G22C U34G G36A, 0.01.
As for C15G G30U G44U C45U, the figure is 0.04.
In the case of C15G G17C A26G U28C A39G G44C C46G, the self-cleavage was found to be 0.
As for C15G C18U G21U U32A A41U, the self-cleavage was 0.04.
The result for C15G G17U A39U reads 0.02; that for C15G G21C C37U, 0.05; that for C15G A26G C31G, 0.01.
Take C15G G17A U43A: the self-cleavage is 0.15.
The result for C15G U28C C37G reads 0.01.
In the case of C15U A16U U34C G35U U38C, the self-cleavage amounted to 0.02.
C15G G21C G27A C37A: the self-cleavage is 0.01.
Consider C15G G21A C37A G40U, for which the self-cleavage stood at 0.04.
As to C15U A25G A39G, the self-cleavage came out at 0.15.
On to C15G C18U G40U C42A, for which the self-cleavage was 0.18.
As for C15G G17A C23U G33A, the figure is 0.08; as for C15G A16U U32A, 0.07.
The result for C15U C18G G27C A39C reads 0.09; that for C15U A16U C18G A26G, 0.01.
